# From the supplement of paper PMC10126150
# Values marked as one replicate rest on one cluster of the flow cell; about a third of the high ones do not repeat.
# Tested on: ATP
# Assay: switch fluorescence ratio, 500 uM ATP over buffer (Cy3 cluster intensity, sum of 5 cycles each) (fold (ratio)); higher = stronger signal-on switching upon ATP binding; sequences stand for … in TCGTCGGCAGCGTCAGATGTGTATAAGAGACAGTTTTTTTTTTTTTTTTTTTTTTTTT…TC
# Details: aptamer strand: ATP DNA aptamer (quencher-CACCTGGGGGAGTATTGCGGAGGAAGG + anchor), 100 nM annealed; ATP concentration: 500 uM; one replicate
# Outline: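 The fluorescence ratio divides summed target-cycle Cy3 intensity by summed buffer-cycle Cy3 intensity for each cluster and is averaged per switch-domain sequence. Cy3-labelled switching-strand clusters on a modified Illumina MiSeq flow-cell were annealed to 100 nM quencher-labelled ATP aptamer, then imaged in selection buffer and again after 15 min with 500 uM ATP at 22 °C. Five such cycles were run, with NaOH stripping and re-annealing between them, and clusters outside 100-1000 RFU were excluded.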
# 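Further: ATP exposure 15 min at 22 °C before imaging.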
row,Sequence,switch fluorescence ratio
1,TGTTAACTCG,0.953
2,TGTTACGCT,1
3,TGTTAGCGA,1.05
4,TGTTATGTCA,0.985
5,TGTTCAAACT,0.995
6,TGTTCACTCG,0.985
7,TGTTCAGCCA,0.999
8,TGTTCATCGA,0.981
9,TGTTCATTTC,0.982
10,TGTTCCCCAT,1.02
11,TGTTCCCTGG,1.05
12,TGTTCCGCGC,4.43
13,TGTTCGCTTT,1.05
14,TGTTCGGAGA,0.975
15,TGTTCGGGCA,0.98
16,TGTTCGTGGG,1
17,TGTTGAGCGC,0.981
18,TGTTGAGGAT,0.997
19,TGTTGCGCGA,1.07
20,TGTTGGATAA,0.992
21,TGTTGGCATT,0.983
22,TGTTGGGCCG,1.49
23,TGTTGTATAC,0.994
24,TGTTGTGATA,0.941
25,TGTTTAACGT,1.01
26,TGTTTAGACA,0.993

row,Sequence,switch fluorescence ratio
1,TGTTTCACCT,1.08
2,TGTTTCAGTT,0.973
3,TGTTTCCTAG,1.04
4,TGTTTCGAAC,0.997
5,TGTTTGCAG,0.995
6,TGTTTGGAGT,1
7,TGTTTGGGTC,0.995
8,TGTTTGGTAC,1.03
9,TGTTTGTAC,1.07
10,TGTTTTCCGT,1.02
11,TGTTTTCTTC,1.02
12,TGTTTTTTCA,1.01
13,TTAAAAACGA,1.28
14,TTAAAACAT,1.02
15,TTAAAAGAAG,0.948
16,TTAAAGAAG,1.06
17,TTAAAGCCGA,0.992
18,TTAAATAGG,0.988
19,TTAAATGACA,0.989
20,TTAACCAAC,1.49
21,TTAACGAGAA,1.02
22,TTAACGCGCA,1.06
23,TTAACGTGGT,1.05
24,TTAACTACTG,0.922
25,TTAACTCCTA,1.03
26,TTAAGACAGT,0.988

row,Sequence,switch fluorescence ratio
1,TTAAGACTTA,1.01
2,TTAAGAGCAA,1.43
3,TTAAGCATTC,1.35
4,TTAAGCCGTC,1.06
5,TTAAGCGTGC,0.993
6,TTAAGCTACT,1.13
7,TTAAGCTCTT,0.956
8,TTAAGGCTGT,1.01
9,TTAAGGGTCT,1.03
10,TTAAGGTGCG,0.978
11,TTAAGGTGCT,1.16
12,TTAAGGTTC,0.972
13,TTAAGGTTGT,0.971
14,TTAAGTAAGC,1.14
15,TTAAGTTTCC,1.15
16,TTAATAAGCC,0.983
17,TTAATAGGTA,0.959
18,TTAATAGTCG,0.997
19,TTAATATGTC,1.03
20,TTAATATTTC,0.989
21,TTAATCCCCA,1.06
22,TTAATCGAGC,1.05
23,TTAATCGTTT,1.07
24,TTAATGCACG,1.12
25,TTAATGGTCT,1
26,TTAATTCGAT,1.04

row,Sequence,switch fluorescence ratio
1,TTAATTTTTA,1.02
2,TTACAAGCGG,1.02
3,TTACACATCT,0.995
4,TTACACCCGC,1.12
5,TTACACTCGC,1.07
6,TTACACTTCT,1.05
7,TTACAGAC,1.15
8,TTACAGAGCG,1.06
9,TTACAGGGCA,1.02
10,TTACAGTCCC,1.01
11,TTACAGTCGC,1.1
12,TTACAGTCTT,1.02
13,TTACATAAAA,1.04
14,TTACATTATC,1.04
15,TTACCACGCC,1.17
16,TTACCATC,0.947
17,TTACCCCGGG,2.63
18,TTACCGCCTA,1.47
19,TTACCTGGTA,1.03
20,TTACCTTCCC,3.05
21,TTACGAACGG,1.48
22,TTACGACGTC,1.05
23,TTACGAGAGA,0.984
24,TTACGAGCTT,1.05
25,TTACGAGGGC,1.04
26,TTACGAGTTC,1

row,Sequence,switch fluorescence ratio
1,TTACGCGAA,1.03
2,TTACGGATCT,1.06
3,TTACGGCTCT,1.04
4,TTACGTAGTT,1.05
5,TTACTAACCC,1.02
6,TTACTACAAA,1.04
7,TTACTAGACC,1.21
8,TTACTATGGG,0.978
9,TTACTCCTAT,1.08
10,TTACTGACTG,1.18
11,TTACTGATTT,1
12,TTAGAAAAAT,0.984
13,TTAGAACCGG,1.02
14,TTAGACATAA,1.02
15,TTAGACATGT,0.985
16,TTAGACTAAG,0.986
17,TTAGACTCTT,0.973
18,TTAGAGGAA,0.984
19,TTAGAGTTA,0.995
20,TTAGATAGAC,1.09
21,TTAGATGAGT,0.978
22,TTAGATGGC,1.13
23,TTAGATGTAC,0.971
24,TTAGCACACT,1.12
25,TTAGCAGATT,1.02
26,TTAGCCTTCT,1.08

row,Sequence,switch fluorescence ratio
1,TTAGCGATAA,2.33
2,TTAGCGGGAG,0.993
3,TTAGCTATGT,0.997
4,TTAGCTCTGT,0.972
5,TTAGGACACG,0.957
6,TTAGGATTTG,1.02
7,TTAGGCAAGC,1.18
8,TTAGGGAAAG,1.02
9,TTAGGGAAGA,1.3
10,TTAGGGTGA,0.989
11,TTAGGTAAGG,1.01
12,TTAGGTCTCC,1
13,TTAGGTGTGT,1.06
14,TTAGGTTCCT,1.06
15,TTAGTAAAGT,0.991
16,TTAGTAAATA,0.986
17,TTAGTAAC,0.99
18,TTAGTAACAA,0.972
19,TTAGTAGGTT,0.983
20,TTAGTATAG,0.997
21,TTAGTCTTTA,0.991
22,TTAGTGAGGA,1.05
23,TTAGTGCAGT,1.05
24,TTAGTGTCGC,1.03
